In the antibiotic and cytotoxicity screens of Wong et al. (2023):
The list shows a part of the results.

Test system: S. aureus RN4220
Assay: growth inhibition call (relative growth <= 0.2)
Conditions: 50 µM

Growth inhibition call, inactive:
COc1c2ccoc2cc2oc(C)cc(=O)c12
COc1ccc(CNC(=O)N(C)C[C@H]2OCc3ccccc3-c3c(n(C)c4ccccc34)C(=O)N([C@H](C)CO)C[C@@H]2C)cc1
Cc1noc(C)c1S(=O)(=O)Nc1ccc2c(c1)C(=O)N([C@@H](C)CO)C[C@@H](C)[C@@H](CN(C)Cc1ccc(Cl)c(Cl)c1)OCCCC[C@@H](C)O2
CCCNC(=O)Nc1ccc2c(c1)C(=O)N(C)C[C@H](OC)[C@H](C)CN(Cc1ccc(-c3ccccn3)cc1)[C@@H](C)CO2
C[C@@H]1CCCCO[C@H](CN(C)C(=O)NC2CCCCC2)[C@H](C)CN([C@@H](C)CO)C(=O)c2cc(NC(=O)Nc3ccc(C(F)(F)F)cc3)ccc2O1
C[C@@H]1CN([C@@H](C)CO)C(=O)c2cccc(NS(=O)(=O)c3ccc(F)cc3)c2O[C@@H]1CN(C)S(=O)(=O)c1ccccc1
C[C@@H]1CCCCO[C@H](CN(C)Cc2ccc(C(F)(F)F)cc2)[C@@H](C)CN([C@H](C)CO)C(=O)c2cc(NS(=O)(=O)c3ccc(F)cc3)ccc2O1
O=C(C[C@@H]1CC[C@H]2[C@@H](COC[C@H](O)CN2S(=O)(=O)c2ccccc2)O1)NCCN1CCCC1
Cc1c(C)c(C)c(CN)c(C)c1C
C[C@H](CO)N1C[C@H](C)[C@@H](CN(C)CC2CCCCC2)OCCCC[C@H](C)Oc2ccc(NC(=O)Nc3ccc(F)cc3)cc2C1=O
Cc1noc(C)c1S(=O)(=O)Nc1ccc2c(c1)CC(=O)N([C@H](C)CO)C[C@H](C)[C@H](CN(C)Cc1ccccc1)O2
C[C@@H]1CN([C@H](C)CO)C(=O)Cc2cc(NC(=O)Nc3ccc(C(F)(F)F)cc3)ccc2O[C@@H]1CN(C)Cc1ccc(Oc2ccccc2)cc1
COc1cccc(S(=O)(=O)N[C@H]2CC[C@H](CCn3cc(-c4ccccc4OC)nn3)O[C@@H]2CO)c1
C[C@@H]1CN([C@@H](C)CO)C(=O)c2cc(-c3ccc(F)cc3)cnc2O[C@@H]1CN(C)C(=O)Cc1ccccn1
C[C@@H]1CN([C@H](C)CO)C(=O)c2cc(NC(=O)Cc3ccccc3)ccc2O[C@@H]1CN(C)S(C)(=O)=O
C[C@H](CO)N1C[C@H](C)[C@H](CN(C)C(=O)NC2CCCC2)Oc2cc(-c3cncnc3)ccc2S1(=O)=O
C/C=C/c1cnc2c(c1)C(=O)N([C@H](C)CO)C[C@H](C)[C@@H](CN(C)S(=O)(=O)c1ccc(OC)cc1)O2
O=C1N[C@@H](Cc2c[nH]c3ccccc23)COC(=O)[C@@H](Cc2ccc(F)cc2)CC=CC[C@@H]1CC(=O)N(CCO)Cc1ccccc1
COCC#Cc1ccc([C@H]2[C@H](CO)N3C(=O)CN(C(=O)c4cccnc4)C[C@@H]23)cc1
COc1ccc(S(=O)(=O)N(C)C[C@H]2Oc3ccc(N(C)C)cc3C(=O)N([C@H](C)CO)C[C@H]2C)cc1
C[C@H]1CCCCO[C@@H](CN(C)CC2CCCCC2)[C@@H](C)CN([C@@H](C)CO)C(=O)c2cc(NC(=O)NC3CCCCC3)ccc2O1
C[C@H](CO)N1C[C@H](C)[C@H](CN(C)Cc2ccc(-c3ccccc3)cc2)Oc2ccc(NC(=O)CCC(F)(F)F)cc2CC1=O
C[C@@H]1CN([C@@H](C)CO)C(=O)c2cc(NS(=O)(=O)c3ccc(F)cc3)ccc2O[C@@H](C)CCCCO[C@@H]1CN(C)C(=O)CCC(F)(F)F
CN1C(=O)c2cc(NC(=O)c3cscn3)ccc2OC[C@@H]2O[C@@H](CC(=O)N3CCOCC3)CC[C@H]21
O=C(C[C@H]1CC[C@@H](NC(=O)CN2CCOCC2)[C@H](CO)O1)NCCc1ccccc1
CC(C)NC(=O)Nc1ccc2c(c1)C(=O)N([C@@H](C)CO)C[C@H](C)[C@@H](CN(C)CC1CCCCC1)OCCCC[C@@H](C)O2
CC(C)NC(=O)Nc1ccc2c(c1)C(=O)N(C)[C@H]1CC[C@H](CC(=O)NCc3ccc(F)cc3)O[C@@H]1CO2
Cc1ncc([N+](=O)[O-])n1C[C@@H](C)O
CCCN(C)C[C@@H]1OCCCC[C@@H](C)Oc2ccc(NS(C)(=O)=O)cc2C(=O)N([C@@H](C)CO)C[C@@H]1C
O=C(NCC(F)(F)F)[C@H]1[C@H](CO)[C@H]2Cn3c(cccc3=O)[C@@H]1N2C(=O)C1CCC1
C[C@H](CO)N1C[C@H](C)[C@H](CN(C)Cc2ccc(-c3ccccc3)cc2)Oc2ccc(NC(=O)NC3CCCCC3)cc2CC1=O
C[C@@H]1CN([C@H](C)CO)C(=O)c2cc(NC(=O)CCCN(C)C)ccc2O[C@@H]1CN(C)C(=O)Nc1ccc2c(c1)OCO2
C[C@@H]1CN([C@H](C)CO)C(=O)c2cccc(NS(=O)(=O)c3cccs3)c2O[C@H]1CN(C)CC1CC1
CS(=O)(=O)c1ncc(Cl)c(C(=O)NCCc2ccc(S(N)(=O)=O)cc2)n1
C[C@H]1CN([C@@H](C)CO)C(=O)c2cc(NC(=O)C3CC3)ccc2O[C@@H]1CN(C)S(=O)(=O)c1ccc(F)cc1
CCCCS(=N)(=O)CC[C@@H](N)C(=O)O (stereo not given in full)
C[C@H](CO)N1C[C@H](C)[C@H](CN(C)S(=O)(=O)c2ccc(Cl)cc2)Oc2ccc(NS(C)(=O)=O)cc2CC1=O
O=C(NCc1ccc2c(c1)OCO2)[C@H]1[C@H](CO)[C@H]2Cn3c(cccc3=O)[C@@H]1N2Cc1cncnc1

Growth inhibition call, active:
Cc1cccnc1[C@@H](NC(=O)C1CCN(CCOc2ccc(Cl)cc2Cl)CC1)c1ccc(F)cc1
Cc1scc2c1N(C(=O)CN1CCN(C)CC1)c1ccccc1NC2=O.Cl
